Experimental data published in patent US20090123474A1, “COMBINATION OF ANGIOPOIETIN-2 ANTAGONIST AND OF VEGF-A, KDR AND/OR FLTL ANTAGONIST FOR TREATING CANCER” (ASTRAZENECA AB, priority 2005, published 2009).

Target: T1, Angiopoietin-2 binding to Tie-2 (Homo sapiens, UniProt O15123)
T1 construct: purchased R&D Systems, Inc. BT623 (Angiopoietin-2, biotinylated); 313-TI-100 (Tie-2/Fc)
T1 sequence (O15123 19-496): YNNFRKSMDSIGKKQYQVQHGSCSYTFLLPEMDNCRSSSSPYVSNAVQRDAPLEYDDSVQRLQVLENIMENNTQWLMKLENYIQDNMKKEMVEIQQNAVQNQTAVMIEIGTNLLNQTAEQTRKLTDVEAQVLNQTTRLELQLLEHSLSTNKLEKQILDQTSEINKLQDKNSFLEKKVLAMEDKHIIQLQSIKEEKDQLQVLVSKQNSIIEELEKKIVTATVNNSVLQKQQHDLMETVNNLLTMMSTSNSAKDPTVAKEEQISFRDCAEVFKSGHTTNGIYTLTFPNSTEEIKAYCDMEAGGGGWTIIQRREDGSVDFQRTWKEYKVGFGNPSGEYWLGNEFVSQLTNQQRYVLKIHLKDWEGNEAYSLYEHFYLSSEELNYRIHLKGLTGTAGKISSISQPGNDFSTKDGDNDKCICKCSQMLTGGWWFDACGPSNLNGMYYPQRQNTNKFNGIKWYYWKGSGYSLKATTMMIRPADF
Assay: Competitive binding assay (modified ELISA): inhibition of Angiopoietin-2 binding to Tie-2
Method: As discussed above, Angiopoietin-2 exerts its biological effect by binding to the Tie-2 receptor. Monoclonal antibodies that inhibited Angiopoietin-2/Tie-2 binding were identified by a competitive binding assay using a modified ELISA. The mAb used were products of micro-purification from 50 ml of exhaustive supernatants of the hybridoma pools that were specific for Angiopoietin-2 (see above). 96-well Nunc Immplates™ were coated with 100 μl of recombinant human Tie-2/Fc fusion protein (R&D Systems, Inc., Cat. No. 313-TI-100) at 4 μg/ml by incubating overnight at 4° C. The plates were washed four times using Phosphate Buffer Saline (PBS) with a Skan™ Washer 300 station (SKATRON). […]
Biotinylated recombinant human Angiopoietin-2 (R&D Systems, Inc. Cat. No. […] Bound biotinylated Angiopoietin-2 was then detected using 100 μl/well of Streptavidin-HRP conjugate at 1:200 by incubating at room temperature for half an hour. After washing twice, the bound Streptavidin was detected by HRP substrate (R&D Systems, Cat. No. DY998). […] The light absorbance at 450 nm was determined by a Spectramax Plus reader. […]
To quantitate the inhibitory activities of the mAb on Angiopoietin-2 binding to Tie-2, the titer was determined for purified mAbs from the top candidates using a competitive binding assay. […] The maximal inhibition (efficacy) and IC50 (potency) were calculated by the software.

EC50 (potency, competitive binding of Angiopoietin-2 to Tie-2, purified mAb): 0.3762 µg/mL
Efficacy* (ratio of bound Angiopoietin-2 with mAb (30 μg/ml) versus without mAb): 0.3639
B1: mAb 5.101.1: fully human anti-Angiopoietin-2 monoclonal antibody, variable regions SEQ ID NO: 33-36 (antibody, listed as Homo Sapiens, listed as Homo sapiens, V domains shown)
VH: [left out - about 100 residues]DGGSIPVSGHFDYWGQGTLVTVSSA
VL: EIVMTQSPATLSVSPGERATLSCRASQSLISNLAWYQQKPGQAPRLLIFGASTRATGIPARFSGSGSGTEFTLTISSLQSEDFAVYYCHQYNNWWTFGQGTKVEIKR
